Assay results as given in PMC6602471.
Some of the results follow. At the low end of the ranking the order means little.

The sequences below were run against T1, ELK1 (UniProt P19419) (assay: custom PBM). Conditions: custom protein-binding microarray; buffer, salt, pH and temperature not stated; high values mean tight binding; double strand, one strand shown.
T1 sequence: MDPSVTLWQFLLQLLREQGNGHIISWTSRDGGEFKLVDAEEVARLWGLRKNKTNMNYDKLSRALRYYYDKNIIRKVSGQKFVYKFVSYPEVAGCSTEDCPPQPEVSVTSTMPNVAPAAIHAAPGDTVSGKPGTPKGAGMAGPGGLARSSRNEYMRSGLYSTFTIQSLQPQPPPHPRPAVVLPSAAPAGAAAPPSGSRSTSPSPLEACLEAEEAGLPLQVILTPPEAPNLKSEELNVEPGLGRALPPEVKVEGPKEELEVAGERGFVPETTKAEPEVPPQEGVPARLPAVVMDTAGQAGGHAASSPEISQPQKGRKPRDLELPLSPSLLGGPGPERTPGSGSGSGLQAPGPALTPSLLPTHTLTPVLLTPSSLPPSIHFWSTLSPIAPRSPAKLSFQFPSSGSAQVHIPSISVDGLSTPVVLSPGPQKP
Sequence “TGTCGGGTAAGGGAATGTAGATCACGTGAACGAAAAGTCTTGATTCGCTTGACGCTGCTG” has a binding signal (log fluorescence intensity) of 8.97. In the case of “GCTGCTGCGGTGCATACCCCACCGGATGTGACGCCGGTCTTGATTCGCTTGACGCTGCTG”, the binding signal (log fluorescence intensity) is reported as 10.1. In the case of “CACAATTTTTACAGTAATGTAGCACGGGTAACTCCTGTCTTGATTCGCTTGACGCTGCTG”, the binding signal (log fluorescence intensity) is reported as 8.87. Work on “TACTGACTTATATATGCGAATGCACAGGAATAGACCGTCTTGATTCGCTTGACGCTGCTG” yielded a binding signal (log fluorescence intensity) of 8.83. Sequence “GTGTATAGGATCCCATCCCACACACGTGTTAAAATGGTCTTGATTCGCTTGACGCTGCTG” has a binding signal (log fluorescence intensity) of 9.07. In the case of “TACTGACTTATATATGCGAATGCACATGAATACACCGTCTTGATTCGCTTGACGCTGCTG”, the binding signal (log fluorescence intensity) is reported as 8.85. Work on “CAGCATAGGACTTCTTCCCTGAAGCAATTGATAACAGTCTTGATTCGCTTGACGCTGCTG” yielded a binding signal (log fluorescence intensity) of 8.91. Sequence “GGAAAAAGGCCCCGGGTAACACCGGAAGTGGGCTTAGTCTTGATTCGCTTGACGCTGCTG” has a binding signal (log fluorescence intensity) of 12.6. Sequence “TCCGGCTACCTGCTCCACCCACTTCAGGCCTTGTAGGTCTTGATTCGCTTGACGCTGCTG” has a binding signal (log fluorescence intensity) of 8.74. With “CAGCATAGGACTACTTCCCTGAAGCAATTGATAACCGTCTTGATTCGCTTGACGCTGCTG” the binding signal (log fluorescence intensity) was 9.22. Sequence “CAGCAGAGGACTTCTTCCCTGAAGCAATTGATAACCGTCTTGATTCGCTTGACGCTGCTG” has a binding signal (log fluorescence intensity) of 8.97. “TACTGACTTATATATGCGAATGCACATGAACAGACCGTCTTGATTCGCTTGACGCTGCTG” was tested, and the binding signal (log fluorescence intensity) was 8.97. “CTGGGACTCGACCCAACTCTGCCACGTGGGTCGTTTGTCTTGATTCGCTTGACGCTGCTG” gave a binding signal (log fluorescence intensity) of 8.94. For “GATTAATTTCTGCCCTTATTCGCACGTGTCATAACAGTCTTGATTCGCTTGACGCTGCTG”, the binding signal (log fluorescence intensity) was 9.05. “TACTGACTTATATATGCGAACGCACATGAATAGACCGTCTTGATTCGCTTGACGCTGCTG” was tested, and the binding signal (log fluorescence intensity) was 8.74. Work on “GATTAATTTCTGCCCTTATTCGCACGTGCGATAACAGTCTTGATTCGCTTGACGCTGCTG” yielded a binding signal (log fluorescence intensity) of 8.75. With “CTGGGACTTGACCCAACTCTGACACGTGGGTCGTTTGTCTTGATTCGCTTGACGCTGCTG” the binding signal (log fluorescence intensity) was 8.86. “GTGTATAGGATCCCTTCCAACACACGTGTTAAAATGGTCTTGATTCGCTTGACGCTGCTG” was tested, and the binding signal (log fluorescence intensity) was 8.96. “CTGCATAGGACTTCTTCCCTGAAGCAATTGATAACCGTCTTGATTCGCTTGACGCTGCTG” gave a binding signal (log fluorescence intensity) of 8.94. “GTGTGTAGGATCCCATCCAACACACGTGTTAAAATGGTCTTGATTCGCTTGACGCTGCTG” gave a binding signal (log fluorescence intensity) of 8.82. “TACTGACTTTTATATGCGAATGCACATGAATAGACCGTCTTGATTCGCTTGACGCTGCTG” showed a binding signal (log fluorescence intensity) of 8.97. For “TAGAGGGAAGACGGTTGTGGTAGTTCCGGGTATTAAGTCTTGATTCGCTTGACGCTGCTG”, the binding signal (log fluorescence intensity) was 11.2. “TGTCGGGTAAGGGAATGTGGATCACGTGAATGAAAAGTCTTGATTCGCTTGACGCTGCTG” showed a binding signal (log fluorescence intensity) of 8.96. For “CTGGGACTTGCCCCAACTCTGCCACGTGGGTCGTTTGTCTTGATTCGCTTGACGCTGCTG”, the binding signal (log fluorescence intensity) was 8.79. In the case of “GATTAGTTTCTGCCCTTATTCGCACGTGCCATAACAGTCTTGATTCGCTTGACGCTGCTG”, the binding signal (log fluorescence intensity) is reported as 8.93. Work on “CGGAAGTGTCGTAAACGTCGGATATCCGGTTCTTCAGTCTTGATTCGCTTGACGCTGCTG” yielded a binding signal (log fluorescence intensity) of 12.6. “TGTCGGGTAAGGGAATGTAGATCACTTGAATGAAAAGTCTTGATTCGCTTGACGCTGCTG” gave a binding signal (log fluorescence intensity) of 8.78. “CTGGGACTTGACCCACCTCTGCCACGTGGGTCGTTTGTCTTGATTCGCTTGACGCTGCTG” was tested, and the binding signal (log fluorescence intensity) was 8.7. For “TACTGACGTATATATGCGAATGCACATGAATAGACCGTCTTGATTCGCTTGACGCTGCTG”, the binding signal (log fluorescence intensity) was 8.77. “TAAAGGGAAGACGGTTGTGGTAGTTCCGGGTATTAAGTCTTGATTCGCTTGACGCTGCTG” was tested, and the binding signal (log fluorescence intensity) was 11.1. For “TAAAAGGAAGACGGTTGTGGTAGTTCCGGGTATTAAGTCTTGATTCGCTTGACGCTGCTG”, the binding signal (log fluorescence intensity) was 11.8. With “CTGGGACTTGACCCAACTCTGCCACGAGGGTCGTTTGTCTTGATTCGCTTGACGCTGCTG” the binding signal (log fluorescence intensity) was 8.74. In the case of “TAAAGGGAAGACGGTTGCGGTAGTTCCGGGTATTAAGTCTTGATTCGCTTGACGCTGCTG”, the binding signal (log fluorescence intensity) is reported as 11.3. Work on “GCTGCTGCGGTGCATACCCCACCGGATCTGACCCCGGTCTTGATTCGCTTGACGCTGCTG” yielded a binding signal (log fluorescence intensity) of 9.38. Work on “GGAAAAAGGCCCAGTGTAACACCGGAAGTGGGCTTAGTCTTGATTCGCTTGACGCTGCTG” yielded a binding signal (log fluorescence intensity) of 10.9. “CGGCAGTGTCGTAAACGTCGGATATCCGGTTCTTCTGTCTTGATTCGCTTGACGCTGCTG” was tested, and the binding signal (log fluorescence intensity) was 12.2. For “CAGCATAGGACTTCTTCCCTGCAGCAATTGATAACCGTCTTGATTCGCTTGACGCTGCTG”, the binding signal (log fluorescence intensity) was 8.88. Sequence “GATTAATTTCTGCCCTTACTCGCACGTGCCATAACAGTCTTGATTCGCTTGACGCTGCTG” has a binding signal (log fluorescence intensity) of 8.76. For “CTGGGACTTGACCCCACTCTGCCACGTGGGTCGTTTGTCTTGATTCGCTTGACGCTGCTG”, the binding signal (log fluorescence intensity) was 8.7. With “CCGAAGTGTCGTAAACGTCGGATATCCGGTTCTTCTGTCTTGATTCGCTTGACGCTGCTG” the binding signal (log fluorescence intensity) was 12.6. “CGGAAGTGTCGTAAACGTCGGATATCCGGTTCCTCTGTCTTGATTCGCTTGACGCTGCTG” was tested, and the binding signal (log fluorescence intensity) was 12.5.
